Experimental data reported in the supplement of paper PMC11876631.
Changes are numbered by the printed parent chain. Names may count otherwise. ± gives the standard deviation of the averaged measurements. Laboratory Escherichia coli strains with one amino-acid change in an essential protein, pooled on minimal glucose agar with carbenicillin or gentamicin at twice the control MIC (plus kanamycin and chloramphenicol for the plasmids), 48 h. Fold change of barcode share against drug-free plates; higher = less susceptible. Active = above 20 in both replicates (the paper's putatively resistant). '<' = one read or none on drug, '>' = one read or none on a drug-free plate. Shares are relative, so most strains fall below 1 when a few take over. Listed are strains with at least 15 reads on both drug-free plates, and hits; most hits rest on fewer reference reads. Replicate rank correlation about 0.5. Edits are read from barcodes.

B1: thrS L79W (protein)
chain: MPVITLPDGSQRHYDHAVSPMDVALDIGPGLAKACIAGRVNGELVDACDLIENDAQLSIITAKDEEGLEIIRHSCAHLWGHAIKQLWPHTKMAIGPVIDNGFYYDVDLDRTLTQEDVEALEKRMHELAEKNYDVIKKKVSWHEARETFANRGESYKVSILDENIAHDDKPGLYFHEEYVDMCRGPHVPNMRFCHHFKLMKTAGAYWRGDSNNKMLQRIYGTAWADKKALNAYLQRLEEAAKRDHRKIGKQLDLYHMQEEAPGMVFWHNDGWTIFRELEVFVRSKLKEYQYQEVKGPFMMDRVLWEKTGHWDNYKDAMFTTSSENREYCIKPMNCPGHVQIFNQGLKSYRDLPLRMAEFGSCHRNEPSGSLHGLMRVRGFTQDDAHIFCTEEQIRDEVNGCIRLVYDMYSTFGFEKIVVKLSTRPEKRIGSDEMWDRAEADLAVALEENNIPFEYQLGEGAFYGPKIEFTLYDCLDRAWQCGTVQLDFSLPSRLSASYVGEDNERKVPVMIHRAILGSMERFIGILTEEFAGFFPTWLAPVQVVIMNITDSQSEYVNELTQKLSNAGIRVKADLRNEKIGFKIREHTLRRVPYMLVCGDKEVESGKVAVRTRRGKDLGSMDVNEVIEKLQQEIRSRSLKQLEE
B2: thrS L79Q (protein)
chain: B1 chain with W79Q
B3: thrS L79D (protein)
chain: B1 chain with W79D
B4: thrS I218A (protein)
chain: B1 chain with W79L, I218A
B5: thrS I218W (protein)
chain: B1 chain with W79L, I218W
B6: thrS I218Q (protein)
chain: B1 chain with W79L, I218Q
B7: tilS L28A (protein)
chain: MTLTLNRQLLTSRQILVAFSGGLDSTVALHQLVQWRTENPGVALRAIHVHHGLSANADAWVTHCENVCQQWQVPLVVERVQLAQEGLGIEAQARQARYQAFARTLLPGEVLVTAQHLDDQCETFLLALKRGSGPAGLSAMAEVSEFAGTRLIRPLLARTRGELVQWARQYDLRWIEDESNQDDSYDRNFLRLRVVPLLQQRWPHFAEATARSAALCAEQESLLDELLADDLAHCQSPQGTLQIVPMLAMSDARRAAIIRRWLAGQNAPMPSRDALVRIWQEVALAREDASPCLRLGAFEIRRYQSQLWWIKSVTGQSENIVPWQTWLQPLELPAGLGSVQLNAGGDIRPPRADEAVSVRFKAPGLLHIVGRNGGRKLKKIWQELGVPPWLRDTTPLLFYGETLIAAAGVFVTQEGVAEGENGVSFVWQKTLS
B8: tilS L28W (protein)
chain: B7 chain with A28W
B9: tilS L28Q (protein)
chain: B7 chain with A28Q

These proteins were tested against Escherichia coli (laboratory strain) (assay: barcode share on antibiotic plates over drug-free plates; higher = less susceptible). Settings: antibiotic: carbenicillin; 2× MIC (3.1 µg/mL).
Protocol: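 A pool of E. coli strains, each edited to carry one amino-acid change in an essential protein, was grown for 48 h on minimal glucose agar with or without antibiotic; strain barcodes were sequenced; mean of two replicates.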
In the case of B1, the “fold change of barcode share” value is reported as 0.429 ± 0.087.
For B2, the “fold change of barcode share” value was 0.2759 ± 0.0023.
B3 was tested, and the “fold change of barcode share” value was 0.259 ± 0.034.
B4 was tested, and the “fold change of barcode share” value was 0.413 ± 0.23.
In the case of B5, the “fold change of barcode share” value is reported as 0.476 ± 0.18.
For B6, the “fold change of barcode share” value was 0.917 ± 0.51.
In the case of B7, the “fold change of barcode share” value is reported as 0.31 ± 0.066.
B8 was tested, and the “fold change of barcode share” value was 0.37 ± 0.11.
B9 was tested, and the “fold change of barcode share” value was 0.3 ± 0.039.

Same assay, conditions: antibiotic: gentamicin; 2× MIC (MIC 0.45 µg/mL)
With B1 the “fold change of barcode share” value was under 0.0116.
For B2, the “fold change of barcode share” value was 0.00454 ± 0.0021.
B3 was tested, and the “fold change of barcode share” value was under 0.00682.
With B4 the “fold change of barcode share” value was 0.0117 ± 0.0088.
With B5 the “fold change of barcode share” value was under 0.00214.
In the case of B6, the “fold change of barcode share” value is reported as under 0.0106.
For B7, the “fold change of barcode share” value was under 0.00694.
With B9 the “fold change of barcode share” value was under 0.0096.
